# Measurements as given in PMC4336329 (PLoS ONE, 2015).
# Among all 310,000 compounds or so, about 14,000 (4.5%) showed an effect of 50% or more. The effect is printed as a negative number. This is one part of the list.
# Target: human ether-à-go-go-related gene (hERG) potassium channel (human, UniProt Q12809)
# Experiment: primary screen, population patch clamp on CHO cells stably expressing hERG
# 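Note: peak tail current of the secondary pulse compared with the same well before compound.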
# Sequence of human ether-à-go-go-related gene (hERG) potassium channel (Q12809 whole entry, looked up): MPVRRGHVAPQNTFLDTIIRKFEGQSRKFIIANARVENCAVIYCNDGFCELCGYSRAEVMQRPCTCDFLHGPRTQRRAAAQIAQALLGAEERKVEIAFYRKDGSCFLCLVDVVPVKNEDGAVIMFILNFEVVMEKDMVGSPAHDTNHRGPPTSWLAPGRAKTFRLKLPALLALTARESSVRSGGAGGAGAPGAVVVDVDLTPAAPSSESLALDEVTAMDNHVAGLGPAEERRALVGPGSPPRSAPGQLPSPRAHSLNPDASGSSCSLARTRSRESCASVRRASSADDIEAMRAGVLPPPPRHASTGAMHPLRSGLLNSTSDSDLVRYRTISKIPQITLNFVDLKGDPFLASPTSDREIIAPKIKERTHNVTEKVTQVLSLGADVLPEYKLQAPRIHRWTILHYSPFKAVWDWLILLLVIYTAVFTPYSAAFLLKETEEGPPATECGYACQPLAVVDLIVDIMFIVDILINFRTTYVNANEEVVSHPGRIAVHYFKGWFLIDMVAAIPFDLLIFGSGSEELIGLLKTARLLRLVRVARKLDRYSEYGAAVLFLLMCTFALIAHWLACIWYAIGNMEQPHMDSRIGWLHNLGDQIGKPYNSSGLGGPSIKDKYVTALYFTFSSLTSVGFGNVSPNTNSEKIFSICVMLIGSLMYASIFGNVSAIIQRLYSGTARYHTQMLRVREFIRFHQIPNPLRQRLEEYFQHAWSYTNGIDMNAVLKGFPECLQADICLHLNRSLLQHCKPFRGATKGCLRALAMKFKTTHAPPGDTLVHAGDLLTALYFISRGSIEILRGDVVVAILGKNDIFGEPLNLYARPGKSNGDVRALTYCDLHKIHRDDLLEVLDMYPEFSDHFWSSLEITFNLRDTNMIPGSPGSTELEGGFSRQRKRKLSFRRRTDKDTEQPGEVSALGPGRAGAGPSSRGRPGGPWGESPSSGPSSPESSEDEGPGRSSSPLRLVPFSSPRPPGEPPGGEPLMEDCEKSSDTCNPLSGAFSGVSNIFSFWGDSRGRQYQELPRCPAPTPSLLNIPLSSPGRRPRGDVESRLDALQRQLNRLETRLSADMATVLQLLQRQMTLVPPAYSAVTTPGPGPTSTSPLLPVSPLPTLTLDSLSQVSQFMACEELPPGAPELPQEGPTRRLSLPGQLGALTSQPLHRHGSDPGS
row,Structure (SMILES),"hERG current change (%, negative = inhibition) at 10uM"
1,CCOC(=O)c1oc2nc(CC(C)C)c3c(c2c1N)CCCC3,-3.62%
2,O=C(Cc1c(F)cccc1Cl)NCCc1c[nH]c2ccccc12,8.99%
3,O=C(CC1Sc2ccccc2NC1=O)OC(C(=O)NCCc1ccccc1)c1cccnc1 (stereo not shown),-38.5%
4,Cn1c(=O)n(C)c2cc(S(=O)(=O)Nc3ccc(F)cc3)ccc21,20.9%
5,Cc1cc(C(=O)CN2C(=O)C(=O)N(CC(C)C)C2=O)c(C)n1-c1ccccc1F,-9.17%
6,COC(Cc1n[nH]c(=S)n1-c1ccccc1)OC,14.4%
7,COc1ccc(/C=C2/SC(=O)N(CCC(=O)Nc3ccc(S(=O)(=O)Nc4nccs4)cc3)C2=O)cc1,7.64%
8,Cc1ccc(-c2cc(C(=O)NCc3ccc4c(c3)OCO4)[nH]n2)c(O)c1C,-3.98%
9,Cc1ccc(C)c(N(CC(=O)NC2CCCC2)C(=O)CNC(=O)c2cccs2)c1,-0.398%
10,Cc1ccc(NC(=O)NC2(C(=O)NCc3ccco3)CCCCC2)cc1,3.86%
11,CC(C)CN1C2CCCC1CC(NC(=S)NCc1ccco1)C2 (stereo not shown),-18.7%
12,Cc1cccc(/C=N/NC(=O)c2ccc(NC(=O)c3ccccc3Cl)cc2)n1,27.7%
13,COc1ccc(C(=O)Nc2ccc(C)cn2)c(OC)c1,-4.18%
14,COc1ccccc1CCNC(=O)CCC(=O)N1CC2C[C@@H](C1)Cn1c2cccc1=O,6.31%
15,CC(C(=O)NCCC1=CCCCC1)c1ccc([N+](=O)[O-])cc1 (stereo not shown),9.98%
16,CCC(=O)Nc1nnc(S(=O)(=O)N2CCCC2)s1,8.85%
17,CC(C)(C)NC(=O)C(c1ccc(O)cc1)N(Cc1ccco1)C(=O)CCC(=O)Nc1ccccn1 (stereo not shown),-2.54%
18,C=CCNC(=O)N[C@@H](Cc1ccccc1)C(=O)OC,13.3%
19,O=C(Nc1ncn[nH]1)c1cccc(S(=O)(=O)N2CCOCC2)c1,4.6%
20,CCn1cc(CNC(=O)c2ccc(OC3CCN(Cc4ccccn4)CC3)cc2)cn1,7.38%
21,CCN(CC)C(=O)c1cccc(NC(=O)c2ccccc2OCc2c(C)noc2C)c1,-18.2%
22,NS(=O)(=O)c1ccc(CNC(=O)c2ccc(NS(=O)(=O)c3ccc4[nH]c(=O)[nH]c4c3)cc2)cc1,-41.2%

row,Structure (SMILES),"hERG current change (%, negative = inhibition) at 10uM"
1,COc1ccc(NS(=O)(=O)c2cccc(C(=O)NNC(=O)c3ccc(Br)o3)c2)cc1,-4.08%
2,O=C(C[n+]1cc(-c2ccccc2)n2c1CCC2)N1c2ccccc2Sc2ccccc21.[Cl-],-16.3%
3,CCOC(=O)c1c(C)nc2c(c1-c1ccc(Cl)cc1)C(=O)CC(C)(C)C2,-4.48%
4,N#CCCN(C(=O)COC(=O)CCc1ccccc1)c1ccccc1,-14.7%
5,Cc1ccc(NC(=O)CN2C(=O)CC(C)S(=O)(=O)c3ccccc32)cc1 (stereo not shown),9.68%
6,CC1CN=C(Nc2ccc(N(C)C)cc2)S1 (stereo not shown),-6.42%
7,CN(C)c1ccc(NC(=O)C2CCCN(S(=O)(=O)c3ccccc3)C2)cc1 (stereo not shown),11.5%
8,CN(C)S(=O)(=O)c1ccc(C(=O)N2CC(=O)Nc3ccc(F)cc3C2c2ccc(F)cc2)cc1 (stereo not shown),-21%
9,O=C(CSc1nnc(NC(=O)Cc2ccc(F)cc2)s1)NCc1ccco1,14.3%
10,O=C(OCCN1CCN(C2=NS(=O)(=O)c3ccccc32)CC1)c1cccc(Br)c1,-68.6%
11,COc1ccccc1/C=N/NC(=O)CC(=O)NCCc1ccccc1,12.1%
12,O=C(CSC1=N/C(=C/c2ccc(Cl)c(Cl)c2)C(=O)N1c1ccccc1F)NC1CC1,-4.14%
13,O=c1nc(N2CCCCCC2)nc(N2CCCCCC2)[nH]1,-0.988%
14,CCN(C(=O)c1cccc(Br)c1)C1CCS(=O)(=O)C1 (stereo not shown),9.22%
15,COc1cc(/C=N/N=C2/NC(=O)C(Cc3ccccc3)S2)ccc1O (stereo not shown),9.18%
16,CCOC(=O)c1sc(=S)n(-c2ccccc2OC)c1N,13.2%
17,Br.CCCCn1c(=N)n(CC(=O)C(C)(C)C)c2ccccc21,-55%
18,CC(Oc1ccc(Br)cc1)C(=O)NCC1(N2CCCCC2)CCCCC1 (stereo not shown),-23.1%
19,COc1ccccc1-n1c(=O)[nH]c2c(C(N)=O)nc(C3CCCCC3)nc21,-11.7%
20,O=C(Cn1cncn1)c1ccccc1,2.88%
21,CN(CC(=O)Nc1ccc(F)cc1)CC(=O)N(C)C1(C#N)CCCCC1,-33.5%
22,CCOc1ccc(/C=C2/C(=O)N(c3ccc(OC)cc3)C(=S)N2CC(=O)OC)cc1OCC,10.8%

row,Structure (SMILES),"hERG current change (%, negative = inhibition) at 10uM"
1,CC(C)CCNCC(O)CON=C1c2ccccc2-c2ccccc21 (stereo not shown),-32.2%
2,NC(C(=O)O)c1cc(=O)[nH]o1 (stereo not shown),13.4%
3,CCOc1ccc(N(CC(=O)NN=C2CCN(C)CC2)S(=O)(=O)c2ccc(Br)cc2)cc1,-13.5%
4,COc1ccc(-c2csc(NC(=O)C3CC(=O)N(Cc4ccccc4)C3)n2)cc1OC (stereo not shown),1.78%
5,Cc1ccc2c(c1)NC(=O)C(CC(=O)NC1CCCCC1C)O2 (stereo not shown),-8.23%
6,CCOC(=O)c1sc(NC(=O)Nc2cccc(Cl)c2)cc1C,-4.89%
7,CC(C)(Cc1ccc(O)cc1)NC(=O)CC(=O)N=Nc1c(O)[nH]c2ccc(Br)cc12,19.5%
8,CC(C)CCN1CCN(Cc2ccc3nsnc3c2)CC1CCO (stereo not shown),-42.6%
9,O=C(CSc1nccn(-c2cccc(F)c2)c1=O)Nc1ccc(Cl)cc1F,3.31%
10,CCN(CC)CCC(=O)NN,26.5%
11,O=C1Nc2ccc([N+](=O)[O-])cc2C1(O)N1CCCCCC1 (stereo not shown),-25.1%
12,O=C(/C=C/c1cc([N+](=O)[O-])ccc1OC(F)F)Nc1ccc(OC(F)F)cc1,14.5%
13,COC(=O)c1cc(C(=O)NCCN2C(=O)S/C(=C\c3cccs3)C2=O)cc([N+](=O)[O-])c1,-19.8%
14,CCCCN(C(=O)NC(=O)Nc1ccccc1OCC)S(C)(=O)=O,6.01%
15,O=C(O)c1ccc(NC(=O)C2(c3ccccc3)CCOCC2)cc1,-5.57%
16,O=C(O)/C(=C\c1ccc(Br)cc1)NC(=O)c1cccs1,15.9%
17,O=C(CCC(=O)Nc1ccc(Cl)cc1)N/N=C/c1ccc2c(c1)OCO2,13.4%
18,O=C1c2ccccc2S(=O)(=O)c2cc(N3CCOCC3)ccc21.O=C1c2ccccc2S(=O)(=O)c2cc(N3CCOCC3)ccc21,4.53%
19,CC12CCC(C(=O)N(Cc3ccccc3)Cc3ccccc3)(OC1=O)C2(C)C (stereo not shown),-2.2%
20,C=CCn1c(COc2cccc3ccc(C)nc23)nnc1SCC(=O)OC,-0.175%
21,O=NN1CCN(c2ccncc2S(=O)(=O)N2CCCCC2)CC1,10.6%
22,CCN1CCN(CCCOc2ccc(-c3ccccc3)cc2)CC1,-71.9%

row,Structure (SMILES),"hERG current change (%, negative = inhibition) at 10uM"
1,COc1ccc2c3c1OC1CC(O)C=CC31CCN(C)C2.I (stereo not shown),16.2%
2,COc1ccccc1S(=O)(=O)Cc1ccc(C(=O)N2CCN(c3ccccn3)CC2)o1,-17.8%
3,CCCC(C)C(=O)Nc1ccc(Cl)cn1 (stereo not shown),-7.45%
4,CC(=O)C(N=Nc1ccccc1)(Sc1nnc(-c2ccccc2)n1-c1ccccc1)C(C)=O,0.72%
5,Cc1cc(-c2csc(NC(=O)c3ccc(C#N)cc3)n2)c(C)n1Cc1ccco1,19.8%
6,COc1cc(OC)cc(C(=O)NCCSc2c[nH]c3ccccc23)c1,-17.1%
7,COc1ccccc1CN1CCN(Cc2cc(OC)c(OC)cc2OC)CC1.O=C(O)C(=O)O,-11.2%
8,Cc1ccc(NC(=O)Cn2c(=O)cnc3ccccc32)cc1S(=O)(=O)N1CCCCC1,-50.8%
9,O=S(=O)(O)c1nc2ccccc2n1CCOc1ccccc1,8.24%
10,O=S(=O)(c1ccc(OCC(O)CN2CCCCC2)cc1)N1CCOCC1 (stereo not shown),18.8%
11,Cc1ccc(C(=O)N(c2ccccn2)C(C)c2ccco2)cc1C (stereo not shown),-10%
12,O=C(O)COc1cnc2ccccc2n1,15.6%
13,CC(NC(=O)Cc1cccs1)C(c1cccs1)N1CCN(c2ccccc2F)CC1 (stereo not shown),-13.6%
14,Cc1ccc(S(=O)(=O)CC(=O)N2CC(C)OC(C)C2)cc1 (stereo not shown),12.5%
15,S=C(Nc1ccccc1Cl)N1CCCCC1,24.2%
16,Cc1cccc(OCC(=O)NC(C)C(=O)N/N=C/c2c(OCc3ccccc3)ccc3ccccc23)c1 (stereo not shown),-4.53%
17,CCCc1cc2c(cc1NC(=O)c1ccco1)OCO2,3.55%
18,Cc1ccc(C(=O)c2cn[nH]c2-c2ccccc2O)cc1,14.4%
19,COCCSc1nnc(NC(=O)C(C)(C)C)s1,4.15%
20,O=c1c2cn[nH]c2[nH]c(=S)n1-c1ccccc1F,24.8%
21,Cc1ccc(S(=O)(=O)N2CCN(C(=O)COC(=O)COc3ccccc3)CC2)cc1,43.8%
22,CSc1ccccc1OCc1cc(C(=O)NC(C)Cn2cncn2)no1 (stereo not shown),-2.35%
